Measured values as given in PubChem BioAssay AID1458 (National Center for Advancing Translational Sciences (NCATS), 2008).
Screen size: about 210,000 compounds; about 5,900 (2.8%) were called active. The shares of active, inactive and inconclusive entries below differ from those in the screen. Calls follow the shape of the dose curve; as a rule, active = well fitted activation curve with a large enough effect; inconclusive = small, poorly fitted or top-dose-only effect; inactive = no such curve, though single readings can be large or run the other way. Potencies beside an inconclusive call are fits to weak or partial responses and may not hold up.
Potency is read from the fitted curve at half-maximal effect; tags tell the direction and shape of the fitted curve.

Experiment: qHTS Assay for Enhancers of SMN2 Splice Variant Expression; also: nearly all actives have a fitted effect of over 55% in size; as to activity change, positive = activation: % of control where 0% means no effect
Details: HEK293 SMN2-luciferase splicing reporter, luminescence, 30-36 h; activity change, positive = activation: at 46.1 µM (top of the series)
In short: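 qHTS luciferase splicing reporter: luminescence rises when SMN2 exon 7 is included in transfected HEK293 cells. Compound exposure lasted 30-36 h at 37C, with 4.5 mM final sodium butyrate as control, followed by a ONE-Glo read.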
For `CC(NS(=O)(=O)c1cccc(Cl)c1)C(=O)Nc1ccc(-c2nc3ccccc3s2)cc1` (centres undefined), the Potency was active: 20 µM. With `Cc1cccnc1NC1(C(F)(F)F)N=C(c2ccccc2)NC1=O` (centres undefined) the “activity change, positive = activation” value was inactive: -17%. For `CCOC(=O)N1CCN(C(=O)CCCn2c(=S)[nH]c3ccc(Br)cc3c2=O)CC1`, the Potency was inconclusive: 2.82 µM [activator, single point]. With `CC(C)c1ccc(-c2cc(C(=O)NN3CCN(C)CC3)c3ccccc3n2)cc1` the Potency was inconclusive: 22.4 µM [activator, single point]. With `CC(C)COc1ccc(-c2nnc(-c3ccco3)o2)cc1` the Potency was active: 3.98 µM. For `Nc1nonc1-c1nc2ccccc2[nH]1`, the Potency was inconclusive: 11.2 µM [activator, partial curve, poor fit]. For `O=C(N/N=C/c1ccccn1)c1cc([N+](=O)[O-])cc([N+](=O)[O-])c1`, the “activity change, positive = activation” value was inactive: -3.69%. For `COc1ccc(-c2nc3ccc(N4CCN(C)CC4)cc3c(=O)[nH]2)cc1`, the “activity change, positive = activation” value was inactive: 48.8%. With `O=C(CSc1nnnn1-c1ccc(Cl)cc1)NC(=O)Nc1ccc2c(c1)OCCO2` the Potency was inconclusive: 15.8 µM [activator, single point]. For `CN1C(=O)C2(C(C#N)=C(N)Oc3c2oc(CO)cc3=O)c2ccccc21` (centres undefined), the Potency was inconclusive: 0.0251 µM [activator, full curve]. In the case of `COC(=O)c1cccc(NC(=S)NCc2ccc(F)cc2)c1`, the Potency is reported as active: 7.08 µM. In the case of `COc1cccc(C2C(C(N)=O)=C(C)Nc3nc(-c4cccc(Cl)c4)nn32)c1` (centres undefined), the Potency is reported as inconclusive: 2 µM [activator, full curve, poor fit]. In the case of `O=c1c2ccccc2nc(-c2ccccc2)n1Cc1ccccc1`, the Potency is reported as inconclusive: 0.0079 µM [activator, full curve, poor fit]. With `CCc1c(C(=O)N/N=C/c2ccsc2)csc1C` the “activity change, positive = activation” value was inactive: 2.67%. With `O=C(CN1CCN(C2CCCCC2)CC1)c1c[nH]c2ccccc12` the Potency was inconclusive: 0.316 µM [activator, full curve]. With `CCOC(=O)C1(C/C(C)=N/NC(N)=O)CC(C)OC1=O` (centres undefined) the Potency was inconclusive: 3.16 µM [activator, partial curve, poor fit]. For `COCCCNc1oc(-c2ccccc2Cl)nc1C#N`, the Potency was inconclusive: 5.62 µM [activator, single point]. In the case of `OCCNCCOc1ccccc1-c1ccccc1`, the Potency is reported as inconclusive: 0.0141 µM [activator, full curve]. With `CSc1ccccc1OC1CCN(Cc2ccccc2)CC1` the Potency was inconclusive: 5.62 µM [activator, single point]. In the case of `O=C(NCC(=O)N(c1ccccc1F)C(C(=O)NCC1CCCO1)c1ccccc1)c1ccco1` (centres undefined), the Potency is reported as inconclusive: 12.6 µM [activator, single point]. With `CN(C)c1cccc(C(=O)OCc2cc(=O)oc3cc(O)ccc23)c1` the Potency was inconclusive: 3.98 µM [activator, full curve]. In the case of `Cc1ccc2c(Cl)c(C(=O)Nc3cccnc3)sc2c1`, the Potency is reported as inconclusive: 12.6 µM [activator, single point]. For `COc1ccc(C(=O)Oc2c(C)occc2=O)cc1OC`, the Potency was inconclusive: 3.55 µM [activator, partial curve]. In the case of `CC(=O)c1ccc(N2Cc3ccccc3/C2=N\C(=O)Nc2ccc(Cl)cc2)cc1`, the Potency is reported as inconclusive: 6.31 µM [activator, full curve, poor fit]. In the case of `Cc1cc(C)n(-c2ccc(N3CCOCC3)nn2)n1`, the Potency is reported as inconclusive: 11.2 µM [activator, single point]. For `CCOC(=O)c1c(-c2cccc(C)c2)csc1NC(=O)c1c(-c2ccccc2)noc1C`, the Potency was inconclusive: 5.62 µM [activator, single point]. With `CC(C)NC(=O)Cn1cc(C#N)c2cc(Br)ccc21` the Potency was inconclusive: 2.24 µM [activator, full curve, poor fit]. For `O=C(/C=C/c1c(Cl)nc2ccccn12)Nc1ccc(F)cc1`, the Potency was inconclusive: 11.2 µM [activator, partial curve, poor fit]. In the case of `CC(=O)Nc1nc(COc2ccccc2)cs1`, the Potency is reported as active: 17.8 µM. With `COc1nc(-c2ccccc2)ccc1-c1noc(-c2ccccc2)n1` the Potency was inconclusive: 35.5 µM [activator, partial curve, poor fit]. In the case of `O=C(N/N=C/c1ccc(COc2ccc(Br)cc2)o1)c1ccco1`, the Potency is reported as inconclusive: 10 µM [activator, partial curve, poor fit]. In the case of `O=C(CCOc1ccccc1F)N1CCN(c2ccccc2O)CC1`, the “activity change, positive = activation” value is reported as inactive: 6.09%. With `COc1cc(-c2nnc(Cn3cc(C(F)(F)F)ccc3=O)o2)cc(OC)c1OC` the Potency was inconclusive: 39.8 µM [activator, partial curve, poor fit]. With `O=C(O)c1ccc(-n2nc(C(F)(F)F)c3c2-c2ccoc2CC3)cc1` the Potency was inconclusive: 35.5 µM [activator, single point]. In the case of `COc1ccc2cc(C#N)c(SCC(=O)N3CCCC3)nc2c1`, the “activity change, positive = activation” value is reported as inactive: 19.3%. With `CC(C)c1cc(CNC(=O)CCc2nnc(CCCc3ccccc3)o2)on1` the Potency was inconclusive: 15.8 µM [activator, single point]. For `Fc1ccccc1OCCSc1ncnc2nc[nH]c12`, the Potency was inconclusive: 12.6 µM [activator, single point]. In the case of `O=C(c1cc(-c2ccncc2)nc2ccc(Cl)cc12)N1CCN(C(=O)C2CCCO2)CC1` (centres undefined), the Potency is reported as inconclusive: 35.5 µM [activator, single point]. With `O=c1ccnc(SCn2nnc3ccccc3c2=O)[nH]1` the Potency was inconclusive: 7.08 µM [activator, partial curve]. In the case of `COC(=O)c1ccc2c(=O)n(CC3CCCO3)c(SCC(=O)Nc3ccccc3OC)nc2c1` (centres undefined), the “activity change, positive = activation” value is reported as inactive: 5.95%. With `COCCNC(=S)NC(=O)c1ccc(C(C)(C)C)cc1` the Potency was inconclusive: 22.4 µM [activator, single point]. With `Nc1nc(SCC(=O)N2CCCc3ccccc32)[nH]c(=O)c1-c1ccccc1` the Potency was inconclusive: 0.0035 µM [activator, full curve, poor fit]. For `CC(=O)c1ccc(-c2nc3ccccc3n2C)o1`, the Potency was active: 11.2 µM. In the case of `COc1ccc(Cn2c(CCC(=O)Nc3cccc(OC)c3)nc3cccnc32)cc1`, the “activity change, positive = activation” value is reported as inactive: -8.4%. For `COc1ccc(C(=O)Nc2nc3nc(-c4ccccc4)cc(=O)n3[nH]2)cc1`, the Potency was inconclusive: 35.5 µM [activator, single point]. In the case of `Cc1ccc(Nc2nnc(SCC(=O)NC3CCCc4ccccc43)s2)cc1` (centres undefined), the “activity change, positive = activation” value is reported as inactive: -34.9%. For `Cc1nn(CC(=O)NCc2ccc(C(=O)O)cc2)c(C)c1[N+](=O)[O-]`, the Potency was inconclusive: 17.8 µM [activator, single point]. In the case of `COc1ccc(/C=N/Nc2nc3ccccc3o2)cc1O`, the Potency is reported as inconclusive: 31.6 µM [activator, single point]. For `Cc1ccccc1OCC(=O)OCC(=O)c1ccc(OC(=O)c2ccccc2)cc1`, the “activity change, positive = activation” value was inactive: -5.68%. In the case of `COc1cc2c(cc1NC(=S)Nc1cccc(C(F)(F)F)c1)oc1ccccc12`, the “activity change, positive = activation” value is reported as inactive: -21%. For `CCc1ccc(-c2cc(C(=O)Nn3cnnc3)c3ccccc3n2)cc1`, the Potency was inconclusive: 11.2 µM [activator, partial curve, poor fit]. With `COCC(=O)N(Cc1cc2cc(OC)ccc2[nH]c1=O)c1ccc(C)cc1` the Potency was inconclusive: 2.51 µM [activator, partial curve]. For `CCc1ccc(CNC(=O)c2cc3c(=O)n(CC)c4ccccc4c3s2)cc1`, the Potency was inconclusive: 17.8 µM [activator, single point]. With `CCN1N=C(c2ccccc2)Cn2c1nc1ccccc12` the “activity change, positive = activation” value was inactive: 2.96%. In the case of `COc1ccccc1OCCCOc1ccc(C)cc1Br`, the Potency is reported as inconclusive: 22.4 µM [activator, single point]. In the case of `COCc1cc(C)nc(SCC(=O)c2ccc(O)c(O)c2)c1C#N`, the Potency is reported as inconclusive: 15.8 µM [activator, single point]. For `O=C(Nc1ccc(-c2ccc3nncn3n2)cc1)C1CCCC1`, the Potency was inconclusive: 31.6 µM [activator, single point]. In the case of `CCOc1ccccc1NC(=O)C1CCN(S(=O)(=O)c2c(C)noc2C)CC1`, the Potency is reported as inconclusive: 0.0045 µM [activator, full curve, poor fit]. With `CCOC(=O)c1ccc(NC(=O)C(CC)Sc2nnc3c4ccccc4n(C)c3n2)cc1` (centres undefined) the Potency was inconclusive: 5.62 µM [activator, single point]. In the case of `CC1(C)Cc2nc3sc4c(SCC(=O)NCc5ccccc5)ncnc4c3cc2CO1`, the Potency is reported as inconclusive: 12.6 µM [activator, single point]. With `CC1(CC(=O)N/N=C/c2ccc(OCc3ccc(Cl)cc3Cl)cc2)OCCCO1` the Potency was inconclusive: 14.1 µM [activator, single point]. For `COC(=O)c1oc2ccc(OC)cc2c1N`, the Potency was inconclusive: 10 µM [activator, partial curve, poor fit]. In the case of `Cc1c(NC(=O)COC(=O)Cc2ccc(Cl)cc2)c(=O)n(-c2ccccc2)n1C`, the Potency is reported as inconclusive: 5.62 µM [activator, single point]. With `CCCCCC1=C2CNC(Cc3ccccc3)(C(=O)OC)C=C2C(C)C1=O` (centres undefined) the “activity change, positive = activation” value was inactive: -1.3%. In the case of `Cc1ccc(CN2CCN(/N=C\c3cccc([N+](=O)[O-])c3)CC2)cc1`, the “activity change, positive = activation” value is reported as inactive: -44.9%. In the case of `CCN(CC)S(=O)(=O)c1ccc(Nc2nc3ccccc3n3nnnc23)cc1`, the Potency is reported as inconclusive: 35.5 µM [activator, partial curve]. With `COc1ccc(NC(=O)c2cc(F)cc(F)c2)cc1Cl` the Potency was inconclusive: 12.6 µM [activator, partial curve]. With `CC(C)(C)c1ccc(/C=C/C(=O)Nc2nncs2)cc1` the Potency was inconclusive: 17.8 µM [activator, partial curve, poor fit]. In the case of `N#Cc1c2nc3ccccc3nc2n2cc(NC(=O)c3ccc(F)cc3)ccc12`, the Potency is reported as inconclusive: 5.62 µM [activator, single point].
